# In the supplement of paper PMC11417369:
# ± gives the standard deviation of the averaged measurements. This is one part of the list.
# Tested on: PfAP2-LT AP2 domain (GST-tagged)
# Assay: gcPBM binding intensity (ln(normalized median fluorescence intensity)); higher = stronger DNA binding
# Summary of the method: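 GST-fused DNA-binding domains of P. falciparum, expressed in E. coli, were applied at about 25 μg on average for 1 h to an Agilent 4 × 180k array of primer-extended double-stranded 36-bp intergenic genomic probes and negative controls. Binding intensity is the highest Masliner-normalised natural-log median intensity across replicate spots of either probe orientation, measured with Alexa488 anti-GST antibody and a 488 nm scan.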
row,Sequence,gcPBM binding intensity (ln)
1,AATGTATTTAAACTGACACACAAAAAAAATAAAATA [CACACA_site2138],8.89 ± 0.62
2,ATATTGTAAGTAAACACACACACATCTATAGGTATA [CACACA_site6462],9.6 ± 0.23
3,TTTAAAATATTAAAATGTACATATATATATATATAT [XGTACX_site6784],9.11 ± 0.34
4,ATCCGCTGCCTTTTGGTGCAGAACATAATCATGTAA,8.61 ± 0.38
5,TATATATATATATATACACACATACATATATATATT [CACACA_site8185],9.79 ± 0.18
6,ACATAAATATATTTTTCACACATCCTTAGTTATGAA [CACACA_site5179],8.65 ± 0.43
7,ATATTTACTCACGTCTTGCACTGAGCAAGCATTATA,8.87 ± 0.36
8,TCATGTTTTTAATATTGTACTCTCATTTTATATATC [XGTACX_site8412],8.93 ± 0.45
9,AGCTATTAATTTATTACATGCAAGATTAAAAGACTA [TGCATGCA_site281],8.56 ± 0.41
10,TTTTGATTTTTTTATTGTACCCATAAACATATAATT [XGTACX_site5202],8.57 ± 0.59
11,GGTATTTATGGACGCGTGCACACACATATGAACAAA,9.45 ± 0.4
12,TATTTTTGAAGTTGCACACACAAAAATAAAAAGTAT [CACACA_site418],9.12 ± 0.34
13,TACAAACAATTAAACAAACACACATATACATGTATA [CACACA_site2061],8.9 ± 0.38
14,ATTTTTTATGAAAACATAAAAAAATGAGATAACCAT [CACACA_negctrl_site894],8.71 ± 0.4
15,AAAAAAAAAAGACACACACACACACGGACACATACA [CACACA_site7363],10.3 ± 0.13
16,AAAAAAAAAAAAAAATCACACATTGGTTAAATATTA [CACACA_site5344],8.46 ± 0.3
17,CTATCAAATAATAGCAAACACACAAAAAATAAAAAA [CACACA_site4147],9.04 ± 0.45
18,ATTCATACATGCACACGTACATATTTAAATATAAAA [XGTACX_site8388],9.04 ± 0.36
19,TATTTATACATACGTACACACAAATATTAAAATATA [CACACA_site7004],8.89 ± 0.38

row,Sequence,gcPBM binding intensity (ln)
1,ATATATTATAAATGTAGTACCGTTACATAGTCATAG [XGTACX_site390],8.95 ± 0.4
2,TATATATTGCCCTTCACACACACACCCATATATATA [CACACA_site2493],9.77 ± 0.26
3,CACACCACCAACAAAAGTACATACATATATATATAT [XGTACX_site5781],9.65 ± 0.14
4,ACTACGAGTCGTAGAGTGCAGTCTGGAGAAAAGTAC [GTGCAC_site9769],8.98 ± 0.53
5,ATCAAGCACGAACACACACACACACGCACGCCCACA [CACACA_site6308],10.3 ± 0.3
6,TTTTTTTTTTTCTCCATACACACTTGATAAAACTTT [CACACA_site615],8.6 ± 0.54
7,ATTTTTTTTTTTTGTACATACCACATATACAAAACA [CACACA_negctrl_site1240],8.75 ± 0.44
8,TAATTGATTCTTCACCGTACTCACACATATATATAT [XGTACX_site6530],9.19 ± 0.38
9,ATATATTGAACCTATGCATGTAAAATATATGTAATA [TGCATGCA_site644],8.88 ± 0.43
10,AAATATTAAATGGAAAACAAATATATATATCTTAAT [XGTACX_negctrl_site383],8.57 ± 0.43
11,TGTGTGGATATATGTATGCACTACCCTTTGGGTCAT [GTGCAC_site9506],8.88 ± 0.5
12,TGTAAGTATTCTTGAGGTACACATATAAATATAGTA [XGTACX_site3207],8.69 ± 0.43
13,AATATTATATAATAAAGTACATATATATTCATATTT [XGTACX_site7204],8.66 ± 0.4
14,ATATATATATATAGGAGTACATGAAATACTTAAAAA [XGTACX_site8851],8.83 ± 0.48
15,GTGTGAAGATATAAATGCATTTTTTTATACATTTTC [CACACA_negctrl_site117],8.71 ± 0.41
16,AAAAAAGAAATAATCAAATAAATAAAAAAGATGAAT [XGTACX_negctrl_site607],8.84 ± 0.54
17,TATAAATACATCCTATACTTCTCTTTTACAGTTTTA [CACACA_negctrl_site1283],8.6 ± 0.5
18,GACATTAATTATTTGACACACGACTGGGTGGTGATT [CACACA_site306],9.01 ± 0.39
19,TGATTCAATTTATGCACACTAAAAATTAATTATATT [CACACA_site271],8.6 ± 0.48

row,Sequence,gcPBM binding intensity (ln)
1,TTTTTTTTTTATACATGTACTTAAAAGTAGCACCTT [XGTACX_site1855],8.68 ± 0.53
2,ATTATATATACAACAAGTACAAAAGAAAAATATTAT [XGTACX_site2914],8.76 ± 0.49
3,TTTGTAAAAGGTCATACACACATATTCAAAAGAAGT [CACACA_site2947],9.05 ± 0.37
4,AAAAAAAAAAAATACACACACACATATAAATATGTA [CACACA_site6900],9.62 ± 0.32
5,GTTTATATATGCTTATAATTTTCAATTGTTTTACAA [TGCATGCA_negctrl_site384],8.63 ± 0.46
6,ATATATATATATAATTGTACATTTTTAACCTTAACA [XGTACX_site7910],8.8 ± 0.53
7,TTTTATGTTTTTTTTATAAATATTAAAATTCTATAT [CACACA_negctrl_site1477],8.28 ± 0.52
8,ATATTGTTATATGTTTGTACATATTTTTTATATTTT [XGTACX_site6834],8.94 ± 0.47
9,AATGTTAAAAATGAAAGTACATGGAATTTATTATTT [XGTACX_site4095],8.61 ± 0.41
10,TTATATGTATTTCTTTGTACACATTTTTATATATAT [XGTACX_site1462],9.11 ± 0.42
11,CACTTCAAAAAAATATGTACACATATATATATATAT [XGTACX_site3075],9.365 ± 0.035
12,ATTATGCACCAACACACACACACACCCCTAAAAAAT [CACACA_site2568],10.04 ± 0.057
13,TATCATTTTTTTAAAACACACATAATAATATAAATA [CACACA_site2845],8.39 ± 0.36
14,TAAATTTTATAAATCTGTACATATGAGCAAGAACAT [XGTACX_site7400],8.8 ± 0.39
15,TTATTAGGTATATATGCACACAATACCCAAAACAAC [CACACA_site4221],9.04 ± 0.31
16,GGTAATAAACAATGAAGTACGTAAAGGTAAAATATT [XGTACX_site2647],9.36 ± 0.52
17,TGTAAATATAAATGTAATAAATATGTAAAAATAAAT [XGTACX_negctrl_site171],8.74 ± 0.46
18,ATTTAATTTTCATGATGTACTATAGTTTAATGCACA [XGTACX_site1624],8.83 ± 0.34
19,TAATAATCAAACTATACACACATAAATAGATATATA [CACACA_site6220],8.99 ± 0.39
